In US20200179510A1, “LOW DENSITY LIPOPROTEIN RECEPTOR RELATED PROTEIN 5 INHIBITION SUPPRESSES TUMOR FORMATION” (YALE UNIVERSITY, priority 2017, published 2020):

How the values were obtained:
[1] = test system: phospho-STAT5 nuclear localization; experiment: Immunocytostaining of phospho-STAT5 localization in NK cells; type: cell-based, mouse; settings: NK cells from MC38 tumors treated 6 days (two 10 mg/kg injections), vs IgG
Description: They were then placed on poly-lysine coated coverslips and incubated for 30 min at room temperature. Cells were fixed with 4% PFA for 10 min at room temperature and permeabilized with ice-cold methanol for 10 min at −20° C. After rinsed with PBS for 3 times, cells were blocked with a blocking buffer (5% normal donkey serum and 0.5% triton in PBS) for 1 hr at room temperature. Primary antibodies were then diluted in PBS with 0.5% BSA and applied to cells with overnight incubation at 4° C. Cells were rinsed with PBS for 3 times and incubated with diluted fluorochrome-conjugated secondary antibodies (in PBS with 1% BSA) for 1 hr at room temperature. Finally, cells were rinsed with PBS for 3 times and mounted with Prolong Gold Antifade solution (Thermo Fisher) for confocal microscopy.

Recombinant mouse DKK2 = target: T1, Recombinant mouse DKK2 (Mus musculus, UniProt Q9QYZ8); experiment: ELISA, 5F8 binding to DKK2; settings: DKK2 20 ng/ml coated
T1 construct: purchased R&D
T1 sequence (Q9QYZ8 34-259): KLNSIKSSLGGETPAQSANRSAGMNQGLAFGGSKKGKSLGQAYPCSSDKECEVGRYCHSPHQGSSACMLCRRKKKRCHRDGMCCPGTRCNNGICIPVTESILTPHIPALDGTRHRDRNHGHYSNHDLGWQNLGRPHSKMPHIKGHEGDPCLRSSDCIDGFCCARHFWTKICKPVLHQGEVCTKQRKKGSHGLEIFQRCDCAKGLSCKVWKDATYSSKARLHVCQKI
Description: (§1) Recombinant mouse DKK2 or DKK1 protein (20 ng/ml, R&D) in a blocking buffer (1% BSA in PBS) was incubated in a 384-well microtiter plate for overnight at 4° C. The plate was washed with PBS twice and incubated with the blocking buffer for one hour at room temperature. The plate was then incubated with the anti-DKK2 5F8 antibody in the blocking buffer for 1 hour at room temperature. After repeatedly washing, the plate was incubated with an HRP-conjugated secondary antibody for 1 hour at room temperature. A chemiluminance substrate (Thermo Fisher 37070) was added to the plate, and the plate was read by an EnVision plate reader.

MC38 cells or tumors = experiment: Microarray gene expression analysis of MC38 cells or tumors; design: species or system mouse; settings: 5F8-treated vs isotype IgG-treated
MC38 tumors = experiment: MC38 tumor graft in NOD scid gamma (NSG) mice; type: in vivo, mouse; settings: 10 mg/kg every three days from Day 6
Description: MC38 or YUMM1.7 melanoma tumor cells (0.5-1×106) were mixed with BD Matrigel (Matrix Growth Factor Reduced) (BD 354230) in 100 μl and inoculated subcutaneously at the right flanks of the backs of female C57/BL mice (8-10 weeks old). Tumor growth was measured by calipers, and size was expressed as one half of the product of perpendicular length by square width in cubic millimeters. For antibody treatment, control IgG3 antibody and anti-DKK2 antibody were diluted in PBS, and 100 μl was injected i.p. at intervals indicated in the Figures. For survival tests, mice are euthanized when the tumor size exceeding 1800 mm3 for MC38 and 1200 mm3 for YUMM1.7.

[2] = test system: inguinal lymph node leukocytes; experiment: Flow cytometry of tumor draining lymph nodes, MC38 model; type: in vivo, mouse
Description: (§2) Cells in single cell suspension were fixed with 2% PFA (Santa-Cruz sc-281692). After washing with a Flow Cytometry Staining Buffer (eBioscience 00-4222-26), cells were stained with antibodies for cell surface markers for 1 hour on ice in the dark. For staining of intracellular proteins, the cells were washed and resuspended in the Permeabilization Buffer (BD 554723) and stained by antibodies in the Permeabilization Buffer for 1 hour on ice in the dark. The cells were then pelleted and resuspended in the Flow Cytometry Staining Buffer for flow cytometry analysis.

Recombinant mouse DKK1 = target: T2, Recombinant mouse DKK1 (Mus musculus, UniProt O54908); experiment: ELISA, 5F8 binding to DKK1; settings: DKK1 20 ng/ml coated
T2 construct: purchased R&D
T2 sequence (O54908 32-272): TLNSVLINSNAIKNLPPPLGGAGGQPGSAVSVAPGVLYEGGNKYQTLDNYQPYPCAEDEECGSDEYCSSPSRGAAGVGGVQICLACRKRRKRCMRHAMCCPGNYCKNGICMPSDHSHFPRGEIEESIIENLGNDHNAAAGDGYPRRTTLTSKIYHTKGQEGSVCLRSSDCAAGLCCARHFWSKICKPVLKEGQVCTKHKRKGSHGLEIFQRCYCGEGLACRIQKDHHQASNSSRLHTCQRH
Description: as §1

[3] = test system: tumor infiltrated leukocytes (CD8+ and NK1.1+ cells); experiment: Flow cytometry of tumor infiltrated leukocytes, MC38 tumors; type: in vivo, mouse
Description: Tumors were minced using scissors and scalpel blades and incubated with a digestion buffer [RPMI1640, 5% FBS, 1% PS, 25 mM HEPES and 300 U collagenase (Sigma C0130)] in a shaker for 2 h at 37° C. Disperse cells were filtered through a 70 μm cell strainer to eliminate clumps and debris. After centrifugation for 5 minutes (500×g) at 4° C., cell pellets were resuspended in the Red Blood Cell Lysis Buffer (Sigma R7757) and incubated at RT for 5 min to remove erythrocytes. Cells were pelleted again, resuspended and incubated in 0.05% Trypsin/EDTA at 37° C. for 5 min, followed by DNA digestion with the addition of Type I DNase (1 μg/ml final, Sigma D4263) for 5 min. Trypsin digestion was stopped by the addition of FBS to 5%, and cells were filtered again by a 40 μm cell strainer. Finally, the cells were pelleted again and resuspended in PBS at a concentration of […].
as §2

[4] = test system: primary mouse NK cells with MC38 or YUMM1.7 cells; experiment: NK and tumor cell co-culture; type: cell-based; settings: 250 nM, 9 hours
Description: Primary NK cells were isolated from the spleens as described above and cultured in the presence of 50 ng/ml recombinant murine IL-15 for 24 hours. Meanwhile, tumor cells were plated in the 96 well plate for overnight. NK cells were added into the tumor cells at 7:1 radio in the presence of the IgG3 antibody or anti-DKK2 5F8 for 9 hours at 37° C. For testing the effect of DKK2 in co-culture, isolated NK cells were cultured in the presence of 50 ng/ml recombinant murine IL-15 for 24 hours and then cultured in the presence or absence of DKK2 for another 24 hours before the NK cells were added to pre-seeded MC38 cells at 7:1 (NK:MC38) radio. The numbers of live tumor cells were determined by a Guava flow cytometer (EMDmillipore), whereas the cell apoptosis was assessed by flow cytometry using an Annexin V apoptosis detection kit (eBioscience, 88-8007).

[5] = 5F8 10 mg/kg i.p. Days 9 and 12, tumors collected Day 14, vs isotype
[6] = one injection 10 mg/kg i.p., 24 hours

B1: 5F8: Mouse monoclonal antibody to DKK2, raised against a synthetic peptide of human DKK2 (SEQ ID NO: 21); chains SEQ ID NOs: 22, 23 (antibody, V domains shown)
VH: GAELVRPGASVKLSCKASGYSFTNYWMNWVKQRPGQGLEWIGMIHPSDSETRLNQKFKDKATLTVDKSSSTAYMQLSSPTSEDSAVYYCAREGRLGLRSYAMDYWGQGTSVTVSS
VL: PSSLAMSVGQKVTMSCKSSQSLLNSSNQKNYLAWYQQKPGQSPKLLVYFASTRESGVPDRFVGSGSGTDFTLTITSVQAEDLADYFCQQHYITPLTFGAGTKLE
[1]
  cytosolic localization of phospho-STAT5 in tumor-infiltrated NK cells: reduced cytosolic localization of phospho-STAT5
Recombinant mouse DKK2
  binding to DKK2 protein (ELISA): bound specifically to DKK2 antigen in a dose-dependent manner; also recorded: binds specifically to DKK2 protein
MC38 cells or tumors
  expression of IL-2, IL-15, MHC-I haplotypes, NKG2D ligands, Fas or TRAILR1/2: did show significant alteration
MC38 tumors
  tumor suppressive effect in immunodeficient NSG mice: failed to show its tumor suppressive effect
[2]; vs IgG3
  granzyme B in CD8+ cells of tumor draining lymph nodes: a trend towards an increase in granzyme B
  granzyme B in NK1.1+ cells of tumor draining lymph nodes: a significant increase in granzyme B
[2]; vs isotype
  populations of CD4+, CD8+, NK1.1+ cells in tumor draining lymph nodes: no significant differences
Recombinant mouse DKK1
  binding to DKK1 (ELISA): not to DKK1
[3]; [5]
  granzyme B in tumor infiltrated CD8+ and NK1.1+ cells: significant increases in granzyme B
  percentage of myeloid, CD4+, CD8+, T regulatory, NK1.1+ cells in tumors: no significant differences
[3]; [6]
  IFNγ in CD8+ and NK1.1+ cells after acute treatment: trends of increased IFNγ
  PD-1 in CD8+ cells after acute treatment: trends of increased
  activation markers on CD8+ cells after acute treatment: significant increases in CD69, CD107a, CD314, and CD25
  activation markers on NK cells after acute treatment: CD69 and CD314 on NK cells
  granzyme B in tumor infiltrated CD8+ and NK1.1+ cells after acute treatment: strong increases in granzyme B
  populations of CD4+, CD8+, NK1.1+ cells in tumors after acute treatment: no significant differences
[4]
  granzyme B in NK cells co-cultured with YUMM1.7 cells: gzmb is upregulated in NK cells co-cultured with YUMM1.7 cells
[4]; NK:tumor 7:1
  granzyme B expression in NK cells co-cultured with MC38 cells: a marked increase in granzyme B expression
  tumor cell viability, NK co-culture with MC38 cells: decreases in tumor cell viability
[4]; vs IgG
  tumor cell viability in co-cultures (YUMM1.7 or MC38): a decrease in tumor cell viability

“Also recorded” adds a separate entry of the source.
